Our source for the binding signal values is paper PMC6451091.

The list shows a part of the results. For part of these data: At the low end of the ranking the order means little. For part of these data: Measured with an extract: partners may take part in the binding.

The first experiment addresses PU.1 (IVT) (UniProt P17947). Description: protein-binding microarray (PBM). As to conditions: 20 mM HEPES pH 7.9, 100 mM NaCl, 1 mM DTT, 0.2 mg/mL BSA, 0.02% Triton X-100, 2% milk, 0.4 mg/mL salmon testes DNA; 1 h; temperature not stated; high values mean tight binding; double strand, one strand shown; sequences stand for … in GCCTAGCAC…GTGCTAGGTCTTGATTCGCTTGACGCTGCTG
In turn, TTGTATTTTTAGTAGAGACG gave a binding signal of -0.142 z-score.
On the same count and under the same terms, under TGACATTGCAAACACATGGC stands 0.159 z-score; under TGGCCCAGAGCCGCCAAGTT, -0.633 z-score; under GACCTACCTGGTTGCTGGGG, -0.448 z-score.
GAGGGACGAGTCTACAGGGG yielded a binding signal of -0.767 z-score.
Sequence GAGATCGTGCCATTGCACTC displayed a binding signal of -0.38 z-score.
On to CATGACATACAGAAATGGGT, for which the binding signal is -0.0127 z-score.
Sequence GGACACACCCAAATTACAAA displayed a binding signal of -0.319 z-score.
With GCCATGCCCATGTCTGGACT, the binding signal stood at 0.00744 z-score.
Consider AATTTGACTGCCTGAAAGAA, for which the binding signal is -0.116 z-score.
Take GGGATTACAGGCGTGAGCCA: the binding signal was -0.773 z-score.
In turn, AATTTTTTGTATTTTTAGTA displayed a binding signal of -0.205 z-score.
For TATCTGCTGTATATCATTGG, the binding signal turned out to be 0.0351 z-score.
TGGCAGACTGCGTGAAACTA: the binding signal is -0.547 z-score.
The same measure, in the same setting: to TTGAAATTGTTCATTGTGTA belongs -0.377 z-score; to GGGGTGCCATCAAAGTATCT, 0.139 z-score; to AAGAGGCCGAGGACCACAGC, -0.398 z-score.
Sequence TGACTGGAGTGTAATGAGGT displayed a binding signal of -0.869 z-score.
In turn, AGAATAGAGCCCACAGGACA displayed a binding signal of -0.144 z-score.
TCTACTCTCAAGGGCTTTGT showed a binding signal of -0.621 z-score.
ACAAACAGAAGTTACCACTT had a binding signal of 1.14 z-score.
TCGTTGAGGGGAATTGGGGA displayed a binding signal of 0.237 z-score.
Still for that read-out and setting: under CTCGAAAATGTGGGAAGTCT stands 3.26 z-score; under TTTCAGGTAATTCTAATACA, 0.129 z-score.
Sequence AGTTGGGGAAGGGTGGGGCG yielded a binding signal of 0.171 z-score.
GCACATAGCCTGGCATTTAG showed a binding signal of -0.573 z-score.
TAAAAGGAAAAGAGGGCTCC registered a binding signal of -0.377 z-score.
As to ACTGTTGAACATGAGCAATT, the binding signal worked out at 0.0743 z-score.
With GCCACGTGGTGTATTATTCC, the binding signal is -0.143 z-score.
On the same count and under the same terms, to CGGCGTCATGCTAACTTCTG belongs -0.478 z-score.
Sequence GGGAACCAGAAAGTGAAAGA came in with a binding signal of -0.311 z-score.
Consider GCATTCCGAGTTACTGGGAC, for which the binding signal was -0.648 z-score.
On the same count and under the same terms, to AGGTAACCATACTGTCTTGA belongs -0.278 z-score; to TCCTCAGTCTGGCTGAGTGA, -0.578 z-score.
TTATGAAGGTTAGGGAGAAG yielded a binding signal of 0.34 z-score.
The same measure, in the same setting: under ACTGTAGCCCAAGAGTATCT stands -0.747 z-score; under CATCCCTCTTAGGGGTCCAG, -0.466 z-score.
The sequence GAGGATTGGTTAATAAAGAT registered a binding signal of 0.0827 z-score.
CTGTGTTTTGAAATCATATT: the binding signal worked out at 0.346 z-score.
Turning to CATAACATAAAATTTACCAT, the binding signal was -0.11 z-score.

A further experiment has as its target PU.1 (endogenous, THP-1 nuclear extract) (UniProt P17947). Description: nuclear extract protein-binding microarray (nextPBM). As to conditions: 20 mM HEPES pH 7.9, 100 mM NaCl, 1 mM DTT, 0.2 mg/mL BSA, 0.02% Triton X-100, 2% milk, 0.4 mg/mL salmon testes DNA; 1 h; temperature not stated; high values mean tight binding; double strand, one strand shown; sequences stand for … in GCCTAGCAC…GTGCTAGGTCTTGATTCGCTTGACGCTGCTG
TTGTATTTTTAGTAGAGACG had a binding signal of -0.398 z-score.
For TGACATTGCAAACACATGGC, the binding signal is -0.375 z-score.
The same measure, in the same setting: to TGGCCCAGAGCCGCCAAGTT belongs -0.154 z-score; to GACCTACCTGGTTGCTGGGG, 0.00845 z-score; to GAGGGACGAGTCTACAGGGG, -0.391 z-score.
Sequence GAGATCGTGCCATTGCACTC came in with a binding signal of -0.208 z-score.
Sequence CATGACATACAGAAATGGGT returned a binding signal of -0.0731 z-score.
Still for that read-out and setting: under GGACACACCCAAATTACAAA stands 0.0226 z-score; under GCCATGCCCATGTCTGGACT, -0.174 z-score; under AATTTGACTGCCTGAAAGAA, -0.0899 z-score.
On to GGGATTACAGGCGTGAGCCA, for which the binding signal is -0.629 z-score.
The sequence AATTTTTTGTATTTTTAGTA showed a binding signal of -0.618 z-score.
Same read-out and setting: under TATCTGCTGTATATCATTGG stands -0.481 z-score.
TGGCAGACTGCGTGAAACTA: the binding signal is -0.451 z-score.
TTGAAATTGTTCATTGTGTA gave a binding signal of -0.496 z-score.
GGGGTGCCATCAAAGTATCT registered a binding signal of -0.223 z-score.
Turning to AAGAGGCCGAGGACCACAGC, the binding signal turned out to be 0.144 z-score.
The sequence TGACTGGAGTGTAATGAGGT gave a binding signal of -0.319 z-score.
AGAATAGAGCCCACAGGACA yielded a binding signal of -0.207 z-score.
Turning to TCTACTCTCAAGGGCTTTGT, the binding signal was -0.269 z-score.
As for ACAAACAGAAGTTACCACTT, the binding signal is 0.891 z-score.
Sequence TCGTTGAGGGGAATTGGGGA returned a binding signal of -0.0629 z-score.
CTCGAAAATGTGGGAAGTCT came in with a binding signal of 2.44 z-score.
Take TTTCAGGTAATTCTAATACA: the binding signal was -0.216 z-score.
In turn, AGTTGGGGAAGGGTGGGGCG showed a binding signal of -0.0569 z-score.
The sequence GCACATAGCCTGGCATTTAG gave a binding signal of -0.275 z-score.
The same measure, in the same setting: to TAAAAGGAAAAGAGGGCTCC belongs -0.232 z-score; to ACTGTTGAACATGAGCAATT, -0.219 z-score; to GCCACGTGGTGTATTATTCC, -0.519 z-score.
In the case of CGGCGTCATGCTAACTTCTG, the binding signal was -0.199 z-score.
Turning to GGGAACCAGAAAGTGAAAGA, the binding signal worked out at 0.00858 z-score.
GCATTCCGAGTTACTGGGAC had a binding signal of -0.0833 z-score.
AGGTAACCATACTGTCTTGA gave a binding signal of -0.154 z-score.
TCCTCAGTCTGGCTGAGTGA yielded a binding signal of -0.203 z-score.
TTATGAAGGTTAGGGAGAAG showed a binding signal of 0.618 z-score.
Take ACTGTAGCCCAAGAGTATCT: the binding signal is -0.299 z-score.
As to CATCCCTCTTAGGGGTCCAG, the binding signal is -0.15 z-score.
Same read-out and setting: to GAGGATTGGTTAATAAAGAT belongs -0.449 z-score.
Regarding CTGTGTTTTGAAATCATATT, the binding signal is -0.562 z-score.
CATAACATAAAATTTACCAT showed a binding signal of -0.47 z-score.

The next experiment addresses T1, FLI1 (endogenous, THP-1 nuclear extract) (UniProt Q01543).
T1 sequence: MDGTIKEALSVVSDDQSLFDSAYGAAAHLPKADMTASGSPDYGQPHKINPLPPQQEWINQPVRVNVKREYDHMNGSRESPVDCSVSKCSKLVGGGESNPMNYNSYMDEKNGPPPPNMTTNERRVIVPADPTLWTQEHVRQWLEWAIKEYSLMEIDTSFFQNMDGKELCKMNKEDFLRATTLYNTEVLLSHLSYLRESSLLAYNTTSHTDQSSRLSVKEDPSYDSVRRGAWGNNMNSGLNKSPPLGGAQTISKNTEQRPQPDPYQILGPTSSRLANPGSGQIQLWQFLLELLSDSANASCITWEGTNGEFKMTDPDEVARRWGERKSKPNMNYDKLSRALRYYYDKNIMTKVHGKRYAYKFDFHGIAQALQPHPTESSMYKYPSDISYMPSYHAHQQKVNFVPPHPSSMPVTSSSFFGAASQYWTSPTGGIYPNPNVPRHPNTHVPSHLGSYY
Described as above. As to conditions: 20 mM HEPES pH 7.9, 100 mM NaCl, 1 mM DTT, 0.2 mg/mL BSA, 0.02% Triton X-100, 2% milk, 0.4 mg/mL salmon testes DNA; 1 h; temperature not stated; high values mean tight binding; double strand, one strand shown; sequences stand for … in GCCTAGCAC…GTGCTAGGTCTTGATTCGCTTGACGCTGCTG
TTGTATTTTTAGTAGAGACG came in with a binding signal of -0.154 z-score.
In the case of TGACATTGCAAACACATGGC, the binding signal is -0.462 z-score.
TGGCCCAGAGCCGCCAAGTT came in with a binding signal of -0.683 z-score.
Consider GACCTACCTGGTTGCTGGGG, for which the binding signal was -0.246 z-score.
With GAGGGACGAGTCTACAGGGG, the binding signal was -0.323 z-score.
The same measure, in the same setting: under GAGATCGTGCCATTGCACTC stands -0.312 z-score; under CATGACATACAGAAATGGGT, -0.08 z-score; under GGACACACCCAAATTACAAA, -0.555 z-score.
For the sequence GCCATGCCCATGTCTGGACT, the binding signal was -0.388 z-score.
In turn, AATTTGACTGCCTGAAAGAA came in with a binding signal of -0.655 z-score.
For the sequence GGGATTACAGGCGTGAGCCA, the binding signal was -0.442 z-score.
AATTTTTTGTATTTTTAGTA had a binding signal of 0.0986 z-score.
The sequence TATCTGCTGTATATCATTGG yielded a binding signal of -0.202 z-score.
Sequence TGGCAGACTGCGTGAAACTA displayed a binding signal of -0.384 z-score.
As for TTGAAATTGTTCATTGTGTA, the binding signal was -0.481 z-score.
GGGGTGCCATCAAAGTATCT came in with a binding signal of -0.314 z-score.
For AAGAGGCCGAGGACCACAGC, the binding signal is -0.675 z-score.
In turn, TGACTGGAGTGTAATGAGGT displayed a binding signal of -0.492 z-score.
For AGAATAGAGCCCACAGGACA, the binding signal is -0.145 z-score.
With TCTACTCTCAAGGGCTTTGT, the binding signal was -0.481 z-score.
Regarding ACAAACAGAAGTTACCACTT, the binding signal was -0.42 z-score.
In the case of TCGTTGAGGGGAATTGGGGA, the binding signal was -0.283 z-score.
For the sequence CTCGAAAATGTGGGAAGTCT, the binding signal came out at 1.28 z-score.
The sequence TTTCAGGTAATTCTAATACA gave a binding signal of -0.0686 z-score.
Take AGTTGGGGAAGGGTGGGGCG: the binding signal worked out at 0.478 z-score.
Take GCACATAGCCTGGCATTTAG: the binding signal was -0.356 z-score.
As for TAAAAGGAAAAGAGGGCTCC, the binding signal came out at 0.386 z-score.
ACTGTTGAACATGAGCAATT registered a binding signal of -0.67 z-score.
On to GCCACGTGGTGTATTATTCC, for which the binding signal amounted to 0.116 z-score.
Sequence CGGCGTCATGCTAACTTCTG gave a binding signal of 0.389 z-score.
As for GGGAACCAGAAAGTGAAAGA, the binding signal was 0.33 z-score.
Sequence GCATTCCGAGTTACTGGGAC gave a binding signal of -0.399 z-score.
AGGTAACCATACTGTCTTGA displayed a binding signal of -0.393 z-score.
Still for that read-out and setting: under TCCTCAGTCTGGCTGAGTGA stands 0.0282 z-score.
Same read-out and setting: under TTATGAAGGTTAGGGAGAAG stands -0.627 z-score.
Take ACTGTAGCCCAAGAGTATCT: the binding signal is -0.753 z-score.
Take CATCCCTCTTAGGGGTCCAG: the binding signal was 0.0102 z-score.
In turn, GAGGATTGGTTAATAAAGAT yielded a binding signal of -0.119 z-score.
Sequence CTGTGTTTTGAAATCATATT gave a binding signal of 0.218 z-score.
CATAACATAAAATTTACCAT returned a binding signal of 0.261 z-score.
